From the supplement of paper PMC12067230
The data scatter; read single values as rough.

Test: amyloid nucleation score relative to library mode (yeast Sup35 reporter selection) (log enrichment difference); higher = more amyloid nucleation; sequences are the first 22 residues of the Bri2 peptide extended by up to 12 random residues
Details: random library (experiment): 1;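 active = nucleation score significantly above 0 at FDR 0.05; inactive = not significantly above 0 or absent from output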
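Further: [psi-pin-] Saccharomyces cerevisiae expressing SupN fusions, induced by 100 µM Cu2SO4, selected 7 d at 30 °C without adenine and uracil, scored by deep sequencing of output versus input.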

Sequence | amyloid nucleation score
EASNCFAIRHFENKFAVETLICVFQAEWYHRYRA | 2.48
EASNCFAIRHFENKFAVETLICATRFGLFVIPLL | 4.31
EASNCFAIRHFENKFAVETLICGVRLDCCYWWNG | 2.5
EASNCFAIRHFENKFAVETLICFYMSS | 5.64
EASNCFAIRHFENKFAVETLICRIRIT | inactive
EASNCFAIRHFENKFAVETLICDEGGGWAAWSRQ | 0.243
EASNCFAIRHFENKFAVETLICVVGMYD | inactive
EASNCFAIRHFENKFAVETLICVTASRVCSCPGP | inactive
EASNCFAIRHFENKFAVETLICRSDSQTARVIFQ | 2.02
EASNCFAIRHFENKFAVETLICNVWR | 8.07
EASNCFAIRHFENKFAVETLICWRPTTMVCGCVS | inactive
EASNCFAIRHFENKFAVETLICHCVECCVGTSS | 5.81
EASNCFAIRHFENKFAVETLICMSRRLKNSFTVA | inactive
EASNCFAIRHFENKFAVETLICRASSHKPCDHPE | inactive
EASNCFAIRHFENKFAVETLICYTCGHMLRGLGK | 4.95
EASNCFAIRHFENKFAVETLICKVITSVGYVACA | inactive
EASNCFAIRHFENKFAVETLICVGRRMHSRPMYG | inactive
EASNCFAIRHFENKFAVETLICHMAGCYRVGPIE | 1.32
EASNCFAIRHFENKFAVETLICLLTILYNYGWQW | inactive
EASNCFAIRHFENKFAVETLICTRVSIEARIRTC | inactive
EASNCFAIRHFENKFAVETLICCLINHERGQWRF | 7.99
EASNCFAIRHFENKFAVETLICVGM | inactive
EASNCFAIRHFENKFAVETLICCTLL | 8.89
EASNCFAIRHFENKFAVETLICTRVFGSNDGSEE | 3.27
EASNCFAIRHFENKFAVETLICLCTATQLFGLFA | inactive
EASNCFAIRHFENKFAVETLICAQINDGVFAISK | 5.07
EASNCFAIRHFENKFAVETLICVGQVPRGRSRSV | inactive
EASNCFAIRHFENKFAVETLICGYWAWRMFDKWS | inactive

Sequence | amyloid nucleation score
EASNCFAIRHFENKFAVETLICWFVSSLPVALLV | inactive
EASNCFAIRHFENKFAVETLICHWLSPLIGRFSF | 0.506
EASNCFAIRHFENKFAVETLICVVENTLDVWV | 3.75
EASNCFAIRHFENKFAVETLICVGAVVSLSRCYV | inactive
EASNCFAIRHFENKFAVETLICRVILKYPRNPNW | inactive
EASNCFAIRHFENKFAVETLICLSVGVRRHGS | inactive
EASNCFAIRHFENKFAVETLICCYVVKSPMYLFG | 5
EASNCFAIRHFENKFAVETLICEAMYCPSQGANW | inactive
EASNCFAIRHFENKFAVETLICLWKIGSIRWDEW | inactive
EASNCFAIRHFENKFAVETLICLLTGLLGFMRTR | inactive
EASNCFAIRHFENKFAVETLICTMLGSP | 3.73
EASNCFAIRHFENKFAVETLICAGYQHWKDGARV | inactive
EASNCFAIRHFENKFAVETLICVDYKLCWFNP | 4.28
EASNCFAIRHFENKFAVETLICCSRVLSCLNTEW | 6.59
EASNCFAIRHFENKFAVETLICMFLVHL | inactive
EASNCFAIRHFENKFAVETLICIGGIHSSELWIR | 5.42
EASNCFAIRHFENKFAVETLICMKKDVPS | inactive
EASNCFAIRHFENKFAVETLICTFR | inactive
EASNCFAIRHFENKFAVETLICEQTVRSRGLA | inactive
EASNCFAIRHFENKFAVETLICWQLDATPPGTAG | inactive
EASNCFAIRHFENKFAVETLICMVVQDSYEVD | inactive
EASNCFAIRHFENKFAVETLICPLKWSGKEWMTA | inactive
EASNCFAIRHFENKFAVETLICRYAQVYMSWRRW | -0.288
EASNCFAIRHFENKFAVETLICLHTSGCAGIGSG | inactive
EASNCFAIRHFENKFAVETLICNISLITCGYLCD | 3.27
EASNCFAIRHFENKFAVETLICAERRSLPRLSEA | inactive
EASNCFAIRHFENKFAVETLICCNIDQLQKGCVY | 3.74

Same assay, conditions: random library (experiment): 2

Sequence | amyloid nucleation score
EASNCFAIRHFENKFAVETLICVEVYRHILKSFV | -0.174
EASNCFAIRHFENKFAVETLICVIRNIIALMGRQ | inactive
EASNCFAIRHFENKFAVETLICLSLVYCIGYYGW | 5.07
EASNCFAIRHFENKFAVETLICINYRSHKNTVGR | inactive
EASNCFAIRHFENKFAVETLICLTCIVLDDLLSM | 6.35
EASNCFAIRHFENKFAVETLICRPLLRGGALEGR | inactive
EASNCFAIRHFENKFAVETLICRVTCNRACNVV | inactive
EASNCFAIRHFENKFAVETLICELHGGTGYYNVM | 0.836
EASNCFAIRHFENKFAVETLICPDNITMVGNDTC | 0
EASNCFAIRHFENKFAVETLICAGKVEEPWGMRG | inactive
EASNCFAIRHFENKFAVETLICPIRSLTGRTNSR | inactive
EASNCFAIRHFENKFAVETLICYAVKWTSFCRHR | inactive
EASNCFAIRHFENKFAVETLICLTYWSVAKSW | 3.33
EASNCFAIRHFENKFAVETLICCQMRV | 1.11
EASNCFAIRHFENKFAVETLICRNIVDESMEYRG | 2.77
EASNCFAIRHFENKFAVETLICYLTLKGLVTRSC | inactive

Sequence | amyloid nucleation score
EASNCFAIRHFENKFAVETLICRVRFEEIYCNSV | 3.04
EASNCFAIRHFENKFAVETLICYTG | inactive
EASNCFAIRHFENKFAVETLICMIHGCFYVHVDG | -0.104
EASNCFAIRHFENKFAVETLICYRVFLYHMHGLP | inactive
EASNCFAIRHFENKFAVETLICPVYKVSEVTCKI | inactive
EASNCFAIRHFENKFAVETLICYIL | 8.23
EASNCFAIRHFENKFAVETLICNGSRG | inactive
EASNCFAIRHFENKFAVETLICYFATPKHDCQSE | 7.07
EASNCFAIRHFENKFAVETLICYRGMYFSWCGRC | 2.28
EASNCFAIRHFENKFAVETLICCEVFGCDMAICQ | 7.68
EASNCFAIRHFENKFAVETLICYCEHLGNLANTV | inactive
EASNCFAIRHFENKFAVETLICEYCGGQRFCQVG | inactive
EASNCFAIRHFENKFAVETLICMFNQNV | 5.55
EASNCFAIRHFENKFAVETLICVNLSGGRCEYGE | 7.13
EASNCFAIRHFENKFAVETLICCVLGMFSFRCKE | 5.48
EASNCFAIRHFENKFAVETLICRLLERAVGVRTY | inactive

Same assay, conditions: random library (experiment): 3

Sequence | amyloid nucleation score
EASNCFAIRHFENKFAVETLICGSLANETLECVG | inactive
EASNCFAIRHFENKFAVETLICCMVACLSDALGV | 4.14
EASNCFAIRHFENKFAVETLICAPVFARYLGGNA | 6.19
EASNCFAIRHFENKFAVETLICWLLKLWRPSS | inactive
EASNCFAIRHFENKFAVETLICLVMSSEGGLDGH | 5.8
EASNCFAIRHFENKFAVETLICFVC | 4.66
EASNCFAIRHFENKFAVETLICQRKLSGNFMLVV | inactive
EASNCFAIRHFENKFAVETLICRSCVL | inactive
EASNCFAIRHFENKFAVETLICMQRLVRGWPGYD | inactive
EASNCFAIRHFENKFAVETLICTRHYERGTSREL | 4.26
EASNCFAIRHFENKFAVETLICQQGARYTKDLIR | inactive
EASNCFAIRHFENKFAVETLICLNTDISNLGYDG | 4.13
EASNCFAIRHFENKFAVETLICHVLRFADAEVSQ | inactive
EASNCFAIRHFENKFAVETLICVLLQIPPHLHCM | 5.42
EASNCFAIRHFENKFAVETLICTFSSARWGLRKE | inactive
EASNCFAIRHFENKFAVETLICGAWIRGIFRNCR | inactive
EASNCFAIRHFENKFAVETLICFQALKPPHMCSG | inactive

Sequence | amyloid nucleation score
EASNCFAIRHFENKFAVETLICRRVRPGEKLAWR | inactive
EASNCFAIRHFENKFAVETLICLCRHLTNRNRHG | inactive
EASNCFAIRHFENKFAVETLICTLVMPWHWNETE | 8.2
EASNCFAIRHFENKFAVETLICCVCYPFVNLPGV | 8.87
EASNCFAIRHFENKFAVETLICLPHFSVLDMYCC | 7.49
EASNCFAIRHFENKFAVETLICTCQR | 6.1
EASNCFAIRHFENKFAVETLICRTRCPVLFVLYD | 0.0994
EASNCFAIRHFENKFAVETLICELQGHWPHVLYW | inactive
EASNCFAIRHFENKFAVETLICLHSYFRALALFT | inactive
EASNCFAIRHFENKFAVETLICRPHVKP | inactive
EASNCFAIRHFENKFAVETLICTTEHSNIRCFTS | inactive
EASNCFAIRHFENKFAVETLICAG | inactive
EASNCFAIRHFENKFAVETLICEGASGQGMSCG | inactive
EASNCFAIRHFENKFAVETLICFYTH | 5.61
EASNCFAIRHFENKFAVETLICGGWCCASLVTPL | 8.14
EASNCFAIRHFENKFAVETLICVLGFCEQCGAPM | 8.36
